Source: the supplement of paper PMC11741623
Some of the results follow. Interaction screen of human proteins with wild-type SARS-CoV-2 proteins by split-DHFR complementation in yeast, 1 µg/mL methotrexate. Value = fitness of the pair (three or more lineages) minus that of the viral protein without a human partner, on a scale set by negative (0) and fused positive (1) controls, mean of up to three cultures; higher = more likely to interact. Active = false discovery rate below 0.05 (one-sided t-test) in at least one culture. Nearly all pairs are not hits, and differences among them are mostly noise (correlation between cultures about 0.3); most hits were seen in one culture only. Human sequences are the Swiss-Prot entries looked up by gene name; the clone may be another isoform. NSP2 values were corrected by the authors for a growth advantage. Listed are human proteins with a hit and a random twelfth of the others.

B1: DIRAS2, Q96HU8 (protein)
chain: MPEQSNDYRVAVFGAGGVGKSSLVLRFVKGTFRESYIPTVEDTYRQVISCDKSICTLQITDTTGSHQFPAMQRLSISKGHAFILVYSITSRQSLEELKPIYEQICEIKGDVESIPIMLVGNKCDESPSREVQSSEAEALARTWKCAFMETSAKLNHNVKELFQELLNLEKRRTVSLQIDGKKSKQQKRKEKLKGKCVIM
B2: ZNRF1, Q8ND25 (protein)
chain: MGGKQSTAARSRGPFPGVSTDDSAVPPPGGAPHFGHYRTGGGAMGLRSRSVSSVAGMGMDPSTAGGVPFGLYTPASRGTGDSERAPGGGGSASDSTYAHGNGYQETGGGHHRDGMLYLGSRASLADALPLHIAPRWFSSHSGFKCPICSKSVASDEMEMHFIMCLSKPRLSYNDDVLTKDAGECVICLEELLQGDTIARLPCLCIYHKSCIDSWFEVNRSCPEHPAD
B3: FAM82B, Q96DB5 (protein)
chain: MALAARLWRLLPFRRGAAPGSRLPAGTSGSRGHCGPCRFRGFEVMGNPGTFKRGLLLSALSYLGFETYQVISQAAVVHATAKVEEILEQADYLYESGETEKLYQLLTQYKESEDAELLWRLARASRDVAQLSRTSEEEKKLLVYEALEYAKRALEKNESSFASHKWYAICLSDVGDYEGIKAKIANAYIIKEHFEKAIELNPKDATSIHLMGIWCYTFAEMPWYQRRIAKMLFATPPSSTYEKALGYFHRAEQVDPNFYSKNLLLLGKTYLKLHNKKLAAFWLMKAKDYPAHTEEDKQIQTEAAQLLTSFSEKN
B4: CST6, Q15828 (protein)
chain: MARSNLPLALGLALVAFCLLALPRDARARPQERMVGELRDLSPDDPQVQKAAQAAVASYNMGSNSIYYFRDTHIIKAQSQLVAGIKYFLTMEMGSTDCRKTRVTGDHVDLTTCPLAAGAQQEKLRCDFEVLVVPWQNSSQLLKHNCVQM
B5: TSSK4, Q6SA08 (protein)
chain: MGKGDVLEAAPTTTAYHSLMDEYGYEVGKAIGHGSYGSVYEAFYTKQKVMVAVKIISKKKASDDYLNKFLPREIQVMKVLRHKYLINFYRAIESTSRVYIILELAQGGDVLEWIQRYGACSEPLAGKWFSQLTLGIAYLHSKSIVHRDLKLENLLLDKWENVKISDFGFAKMVPSNQPVGCSPSYRQVNCFSHLSQTYCGSFAYACPEILRGLPYNPFLSDTWSMGVILYTLVVAHLPFDDTNLKKLLRETQKEVTFPANHTISQECKNLILQMLRQATKRATILDIIKDSWVLKFQPEQPTHEIRLLEAMCQLHNTTKQHQSLQITT

biological target: SARS-CoV-2 E; test: yeast fitness gain over the viral ORF with no human partner (scaled fitness); higher = more likely to interact
Procedure: (§1)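 Split mouse DHFR complementation in pooled diploid yeast: human ORFeome clones carry one fragment and viral ORFs the other; barcoded lineages compete in 1 µg/mL methotrexate and fitness is read by barcode sequencing in up to three cultures.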

Binder	yeast fitness gain
B1	inactive: -0.0436
B2	inactive: 0.0269
B3	inactive: 0.000935
B4	inactive: 0.0407
B5	inactive: -0.00171

biological target: SARS-CoV-2 M; test: as above
Procedure: as §1

Binder	yeast fitness gain
B1	inactive: 0.0865
B2	inactive: 0.024
B3	inactive: 0.0661
B4	inactive: 0.063
B5	inactive: -0.0513

biological target: SARS-CoV-2 N; test: as above
Procedure: as §1

Binder	yeast fitness gain
B1	inactive: 0.132
B2	inactive: -0.0697
B3	inactive: 0.0642
B5	inactive: -0.428

biological target: SARS-CoV-2 NSP1; test: as above
Procedure: as §1

Binder	yeast fitness gain
B1	inactive: -0.0236
B2	inactive: -0.115
B3	inactive: 0.0659
B4	inactive: -0.0319
B5	inactive: 0.000646

biological target: SARS-CoV-2 NSP10; test: as above
Procedure: as §1

Binder	yeast fitness gain
B1	inactive: 0.0145
B2	inactive: 0.0347
B3	inactive: -0.00361
B4	inactive: 0.0334
B5	inactive: 0.0159

biological target: SARS-CoV-2 NSP12; test: as above
Procedure: as §1

Binder	yeast fitness gain
B1	inactive: 0.0357
B2	inactive: 0.0415
B3	inactive: 0.00312
B4	inactive: -0.0315
B5	inactive: -0.0456

biological target: SARS-CoV-2 NSP13; test: as above
Procedure: as §1

Binder	yeast fitness gain
B1	inactive: -0.0571
B2	inactive: 0.0104
B3	inactive: 0.0406
B4	inactive: 0.0102
B5	inactive: 0.00586

biological target: SARS-CoV-2 NSP14; test: as above
Procedure: as §1

Binder	yeast fitness gain
B1	inactive: -0.0183
B2	inactive: -0.28
B3	inactive: 0.061
B5	inactive: -0.0939

biological target: SARS-CoV-2 NSP16; test: as above
Procedure: as §1

Binder	yeast fitness gain
B1	inactive: -0.123
B2	inactive: 0.0855
B3	inactive: 0.0163
B4	inactive: 0.0108
B5	inactive: -0.061

biological target: SARS-CoV-2 NSP2; test: as above
Procedure: as §1

Binder	yeast fitness gain
B1	inactive: -0.219
B2	inactive: -0.0754
B3	inactive: -0.129
B4	inactive: -0.125
B5	inactive: -0.107

biological target: SARS-CoV-2 NSP4; test: as above
Procedure: as §1

Binder	yeast fitness gain
B1	inactive: 0.0291
B2	inactive: -0.305
B3	inactive: 0.129

biological target: SARS-CoV-2 NSP5; test: as above
Procedure: as §1

Binder	yeast fitness gain
B1	inactive: -0.0903
B2	inactive: 0.0594
B3	inactive: -0.0136
B4	inactive: 0.0476
B5	inactive: 0.0406

biological target: SARS-CoV-2 NSP6; test: as above
Procedure: as §1

Binder	yeast fitness gain
B1	inactive: -0.0297
B2	inactive: 0.0107
B3	inactive: 0.034
B4	inactive: 0.062
B5	inactive: 0.115

biological target: SARS-CoV-2 NSP7; test: as above
Procedure: as §1

Binder	yeast fitness gain
B1	inactive: -0.0335
B2	inactive: 0.0127
B3	inactive: 0.0364
B4	inactive: -0.0416
B5	inactive: 0.0656

biological target: SARS-CoV-2 NSP8; test: as above
Procedure: as §1

Binder	yeast fitness gain
B1	inactive: 0.0708
B2	inactive: 0.0584
B3	inactive: 0.00778
B4	inactive: -0.101
B5	inactive: 0.0259

biological target: SARS-CoV-2 NSP9; test: as above
Procedure: as §1

Binder	yeast fitness gain
B1	inactive: -0.0105
B2	inactive: -0.013
B3	inactive: -0.186
B4	inactive: 0.0298
B5	inactive: -0.137

biological target: SARS-CoV-2 ORF10; test: as above
Procedure: as §1

Binder	yeast fitness gain
B1	inactive: 0.0453
B2	inactive: -0.0743
B3	inactive: 0.0394
B4	inactive: 0.0199
B5	inactive: -0.0592

biological target: SARS-CoV-2 ORF3A; test: as above
Procedure: as §1

Binder	yeast fitness gain
B1	inactive: -0.0706
B2	inactive: 0.0412
B3	inactive: 0.0313
B4	inactive: 0.0317

biological target: SARS-CoV-2 ORF3B; test: as above
Procedure: as §1

Binder	yeast fitness gain
B1	inactive: 0.0531
B2	inactive: 0.00132
B3	inactive: -0.0201
B4	inactive: 0.04
B5	inactive: 0.0637

biological target: SARS-CoV-2 ORF6; test: as above
Procedure: as §1

Binder	yeast fitness gain
B1	inactive: 0.0112
B2	inactive: 0.00255
B3	inactive: -0.0134
B4	inactive: 0.0074
B5	inactive: -0.00768

biological target: SARS-CoV-2 ORF7A; test: as above
Procedure: as §1

Binder	yeast fitness gain
B1	inactive: -0.0319
B2	inactive: 0.0312
B3	inactive: 0.032
B4	inactive: -0.0162
B5	inactive: 0.0515

biological target: SARS-CoV-2 ORF7B; test: as above
Procedure: as §1

Binder	yeast fitness gain
B1	inactive: 0.0121
B2	inactive: -0.00688
B3	inactive: 0.0892
B4	inactive: 0.00261
B5	inactive: -0.0665

biological target: SARS-CoV-2 ORF8; test: as above
Procedure: as §1

Binder	yeast fitness gain
B1	inactive: -0.0533
B2	inactive: -0.0377
B3	inactive: 0.02
B4	inactive: 0.00215
B5	inactive: 0.0474

biological target: SARS-CoV-2 ORF9B; test: as above
Procedure: as §1

Binder	yeast fitness gain
B1	inactive: 0.00292
B2	inactive: 0.0166
B3	inactive: 0.0106
B4	inactive: 0.0227
B5	inactive: -0.00424

biological target: SARS-CoV-2 ORF9Bwu (the 73-codon ORF); test: as above
Procedure: as §1

Binder	yeast fitness gain
B1	inactive: -0.0204
B2	inactive: -0.0318
B3	inactive: -0.0289
B4	inactive: 0.0846
B5	inactive: -0.0134

biological target: SARS-CoV-2 S; test: as above
Procedure: as §1

Binder	yeast fitness gain
B1	inactive: 0.0127
B2	inactive: 0.0381
B3	inactive: 0.0283
B4	inactive: 0.00457
B5	inactive: -0.0102

biological target: SARS-CoV-2 NSP15; test: as above
Procedure: as §1

Binder	yeast fitness gain
B2	inactive: -0.0718
B3	inactive: -0.035
B5	inactive: -0.0328
